Reference: the BET-seq Pho4 binding data (Le et al. 2018)
The list shows a part of the results. The energies were worked out here from pooled read counts, against the library average; single values are noisy.

The sequences below were run against T1, Pho4 (S. cerevisiae) (UniProt P07270) (assay: relative binding free energy (BET-seq); higher = weaker binding). Details: reference: library average.
T1 sequence: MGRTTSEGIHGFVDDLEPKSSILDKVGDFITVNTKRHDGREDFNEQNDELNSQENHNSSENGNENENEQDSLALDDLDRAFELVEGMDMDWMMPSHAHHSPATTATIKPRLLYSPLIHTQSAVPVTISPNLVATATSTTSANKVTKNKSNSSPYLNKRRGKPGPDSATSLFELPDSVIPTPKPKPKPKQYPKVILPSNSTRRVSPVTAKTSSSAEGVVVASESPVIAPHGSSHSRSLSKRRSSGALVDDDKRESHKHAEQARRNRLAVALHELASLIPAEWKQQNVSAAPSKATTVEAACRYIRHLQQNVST

Row | Sequence | relative binding free energy [kcal/mol]
1 | GAAGACACGTGTTGTA | 0
2 | TCCTTCACGTGTTAGG | 0.27
3 | ATGTACACGTGGGTCA | -0.11
4 | TAGGACACGTGAGGGT | 0.22
5 | AGGTGCACGTGGTCGG | -0.14
6 | ATAGCCACGTGTGGGT | -0.1
7 | CAGGTCACGTGCGTGG | -0.07
8 | TTGGTCACGTGTTAAT | 0.19
9 | AGAAACACGTGTTGTG | -0.04
10 | ATAGTCACGTGTAGGG | 0.09
11 | GTTGACACGTGGAGGC | 0.07
12 | GCCGGCACGTGGTAGT | 0.01
13 | TCTAGCACGTGTGTGG | -0.06
14 | TATGACACGTGGTCTT | -0.24
15 | TTCGACACGTGATTGT | 0.12
16 | TAAAACACGTGTAGGT | 0.12
17 | TGTTTCACGTGGGGGG | 0.12
18 | GTAGGCACGTGGGGTC | -0.21
19 | TCCTGCACGTGTGAGG | 0.09
20 | CGTGGCACGTGGGACG | -0.26
21 | GCCTGCACGTGTTGTG | 0.04
22 | GGTTTCACGTGCGCCG | 0.24
23 | TTCTGCACGTGATGTA | 0.2
24 | TCGCTCACGTGGAGGT | 0.22
25 | ACGGTCACGTGTGGAG | 0.22

Row | Sequence | relative binding free energy [kcal/mol]
26 | TAGTTCACGTGGAATA | 0.35
27 | TGTTCCACGTGTAGGG | -0.08
28 | TTGAGCACGTGGAAGC | 0.08
29 | TAGGACACGTGAGTTG | 0.31
30 | CGTCACACGTGGGTAG | 0
31 | ATTTTCACGTGAACGG | 0.43
32 | TGTTTCACGTGACGCG | 0.4
33 | TATTGCACGTGTTTCG | -0.02
34 | GGGTACACGTGCTTGG | 0.18
35 | GTGTGCACGTGGCAGA | -0.13
36 | AATTTCACGTGGGATC | 0.28
37 | AGTTACACGTGGGCGT | -0.05
38 | GTGTGCACGTGCGGAC | -0.04
39 | ATTGTCACGTGTACTG | 0.06
40 | GGGGGCACGTGGTGCC | -0.16
41 | CAGATCACGTGTGGTT | 0.31
42 | ATGAACACGTGGGTAA | -0.05
43 | ATTTGCACGTGACGGA | 0.11
44 | GTACACACGTGTTAGT | 0.02
45 | GGTGACACGTGCGATG | 0.02
46 | TGATTCACGTGGTCTG | 0.29
47 | TTGGCCACGTGGGCGG | -0.19
48 | TATTTCACGTGTGGCA | 0.41
49 | TGGGACACGTGGAGCT | 0.05
50 | GGGTGCACGTGGTGCC | -0.01

Row | Sequence | relative binding free energy [kcal/mol]
51 | AGGGGCACGTGGGTAA | -0.32
52 | ATCTTCACGTGTGTAG | 0.17
53 | GAGTTCACGTGGGTAG | 0.3
54 | AGGGGCACGTGTCTGA | -0.1
55 | GGAGTCACGTGTCAGG | 0.14
56 | CGTGTCACGTGGATTT | 0.22
57 | GGCGCCACGTGATGTG | 0.12
58 | TGATACACGTGAGGTC | 0.36
59 | TAGTACACGTGTGGGC | 0.06
60 | TGTACCACGTGGGGGG | -0.14
61 | TAGGCCACGTGGGTTG | -0.14
62 | GTTAGCACGTGTGTGA | 0.05
63 | AAACTCACGTGTGGTG | 0.17
64 | CTCTTCACGTGTGTGG | 0.27
65 | TAGTGCACGTGCCGTG | -0.01
66 | AGATGCACGTGGGAAC | 0.03
67 | TTGCGCACGTGGCGTA | -0.3
68 | TCCATCACGTGGGTGG | 0.11
69 | TTCGTCACGTGATGCG | 0.22
70 | CTGCGCACGTGAGGTG | 0.08
71 | AGGGCCACGTGTTATG | -0.13
72 | GGGGACACGTGCTGTA | -0.01
73 | TAACTCACGTGTTGTT | 0.17
74 | GTCCGCACGTGAGGGG | 0.06
75 | CGGATCACGTGATTTT | 0.35

Row | Sequence | relative binding free energy [kcal/mol]
76 | CGTGTCACGTGTCGAG | 0.05
77 | GAGTTCACGTGGTTGC | 0.4
78 | TTATACACGTGAGGGA | 0.11
79 | CGTGGCACGTGTTTGG | -0.15
80 | TTTAGCACGTGAGCTT | 0.2
81 | TTACACACGTGTAAGT | 0.19
82 | ATTGACACGTGTTACT | -0.01
83 | GAGGTCACGTGGATTA | 0.23
84 | TATGACACGTGCTGTG | 0.01
85 | TCTGTCACGTGGTGGA | -0.01
86 | TGTAACACGTGTATGC | 0.02
87 | TATAACACGTGTTGAG | -0.06
88 | ATTTACACGTGTCGGT | 0.21
89 | AAGAACACGTGTGGGC | 0.15
90 | GTTGACACGTGCTTGG | 0.1
91 | GCTGGCACGTGCGGAT | -0.05
92 | GGGGTCACGTGAGGGC | 0.34
93 | TAAATCACGTGTTGGT | 0.07
94 | TCGTGCACGTGGAAGA | 0.16
95 | AGTTACACGTGTTTTG | 0.07
96 | TTCATCACGTGGTATG | 0.08
97 | CTTATCACGTGTGGAA | 0.25
98 | GCATTCACGTGGGTTG | 0.1
99 | AATGGCACGTGATGCG | -0.01
100 | AGGGTCACGTGGTGTT | 0.01

Row | Sequence | relative binding free energy [kcal/mol]
101 | AGAGGCACGTGCGTGA | -0.06
102 | TTTTGCACGTGGCGGA | -0.09
103 | GGATTCACGTGATGGA | 0.47
104 | TGTAGCACGTGGTCGT | -0.24
105 | TGTAGCACGTGCGCTT | -0.21
106 | TTGTACACGTGGTAAT | -0.04
107 | CTATTCACGTGTAGTG | 0.12
108 | TGTGACACGTGCAGTG | -0.14
109 | TTAGGCACGTGTTGTA | -0.09
110 | ACGGGCACGTGGAGAT | -0.05
111 | TTGATCACGTGGTGAT | 0.14
112 | TGAAACACGTGGGCAT | -0.07
113 | CTTTGCACGTGTGAGA | 0.07
114 | TTATACACGTGAGATT | 0.46
115 | ATTAACACGTGGTCGT | -0.09
116 | GATTGCACGTGAGTGC | 0.49
117 | CTGTGCACGTGGGTGC | -0.25
118 | TGTTTCACGTGCTCGT | 0.13
119 | ATGAACACGTGAGATG | 0.31
120 | ATTAGCACGTGGCTGT | -0.22
121 | TTGGGCACGTGACATA | 0.03
122 | TCTAACACGTGGTGGG | 0.14
123 | TTACTCACGTGATGTG | 0.15
124 | GAGGTCACGTGGACAG | 0.21
125 | AGTTGCACGTGCTTGG | 0.06

Row | Sequence | relative binding free energy [kcal/mol]
126 | AGCCTCACGTGGGTGG | -0.04
127 | GATTGCACGTGGTGCT | -0.02
128 | ATGGTCACGTGTTACG | 0.01
129 | ATTGGCACGTGAAAGG | 0.17
130 | TTTGACACGTGTTCAG | -0.02
131 | GGAAACACGTGAGTGG | 0.18
132 | GTTCGCACGTGTATTG | -0.03
133 | TGGTACACGTGGGGTA | -0.14
134 | TGGGTCACGTGCACGG | -0.07
135 | ATAGTCACGTGTGTGC | 0.02
136 | TAGGACACGTGAATGG | 0.21
137 | TGTGTCACGTGCGTTA | -0.01
138 | TAGGTCACGTGTCAGG | 0.19
139 | ATTGGCACGTGGCTAG | -0.19
140 | GACAGCACGTGAGGGG | 0.06
141 | TCGTGCACGTGACGGG | 0.01
142 | TGATGCACGTGGTGTC | -0.18
143 | ATTTTCACGTGCATGA | 0.31
144 | GTAGTCACGTGGGTTT | 0.11
145 | GTGTACACGTGTTGTA | 0.08
146 | GTGGACACGTGAGGCA | 0.26
